Reference: EP2093218A1, “Arylalkyl substituted imidazolidinones” (Fariello, Ruggero, priority 2008, dated 2009)

Tested on: site 2 of rat brain sodium channels
Settings: @ 30 uM

C[C@H]1C(=O)NC(C)(C)N1Cc1ccc(OCc2cccc(F)c2)cc1 [Example 1, (S)-(-)-1-[4-(3-Fluoro-benzyloxy)-benzyl]-2,2,5-trimethyl-imidazolidin-4-one] was tested, and the “inhibition of the binding of [^3H]-batrachotoxin at site 2 of rat brain sodium channels” value was 83%.
